Laboratory results reported in the supplement of paper PMC12217912.
Some of the results follow. The full chains were built here from the parent and the listed change. Values near 0.05 are background.

B1: TEV protease; numbered along this chain (parent)
chain: MGESLFKGPRDYNPISSSICHLTNESDGHTTSLYGIGFGPFIITNKHLFRRNNGTLVVQSLHGVFKVKDTTTLQQHLVDGRDMIIIRMPKDFPPFPQKLKFREPQREERICLVTTNFQTKSMSSMVSDTSCTFPSGDGIFWKHWIQTKDGQCGSPLVSTRDGFIVGIHSASNFTNTNNYFTSVPKNFMELLTNQEAQQWVSGWRLNADSVLWGGHKVFMVKPEEPFQPVKEATQL

Variants of: B1
Experiment: raw area under fraction-flipped curve 0-4 h after induction (AUC4h, not background-subtracted), DNA-recorder readout of cleavage of the substrate (dimensionless); higher = more cleavage of the substrate by the protease variant
Conditions: temperature: 34 °C; time window: 0-4 h after rhamnose induction
Description: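 In vivo DNA recorder in E. coli TOP10(DE3) ΔrhaA at 34 °C. Each TEVp single-site mutant (parent TEVp 0) is paired with a single-site variant of the 7-mer TEVs (canonical ENLYFQ|S). The substrate sits between flexible linkers in a Bxb1-sfGFP-TEVs-SsrA fusion, so cleavage stabilises Bxb1 and speeds flipping of a recombination array, read by NGS. The value is the raw area under the fraction-flipped curve over 0-4 h after rhamnose induction (AUC4h), with ≥20 reads per time point. It is not background-subtracted; inactive controls average about 0.047.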
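Note: Bxb1 expression induced with 0.2% (w/v) L-rhamnose at OD600 near 0.5, cultures sampled hourly, flipped fraction per protease–substrate barcode pair counted by paired-end Illumina sequencing.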

| Variant | area with substrate EALYFQS | area with substrate EDLYFQS | area with substrate EFLYFQS | area with substrate EGLYFQS | area with substrate EHLYFQS | area with substrate EILYFQS | area with substrate EKLYFQS | area with substrate ELLYFQS | area with substrate EMLYFQS | area with substrate EPLYFQS | area with substrate EQLYFQS | area with substrate ERLYFQS | area with substrate ESLYFQS | area with substrate EVLYFQS | area with substrate EWLYFQS | area with substrate EYLYFQS | area with substrate ECLYFQS | area with substrate EELYFQS | area with substrate ETLYFQS |
| --- | --- | --- | --- | --- | --- | --- | --- | --- | --- | --- | --- | --- | --- | --- | --- | --- | --- | --- | --- |
| L22H | 0.0492 | 0.0377 | 0.0528 | 0.0284 | 0.0384 | 0.0397 | 0.0494 | 0.0357 | 0.0328 | 0.0339 | 0.054 | 0.046 | 0.056 | 0.044 | 0.0505 | 0.052 |  |  |  |
| L22S | 0.0666 |  | 0.0564 | 0.0502 |  | 0.0473 | 0.0535 | 0.0546 | 0.0493 | 0.0495 | 0.0484 | 0.044 | 0.055 | 0.0506 | 0.049 | 0.0589 | 0.0524 | 0.0497 | 0.0527 |
| L22Y | 0.0491 |  |  | 0.0517 |  | 0.0596 | 0.0585 | 0.0395 |  | 0.0478 | 0.0504 |  | 0.0485 | 0.071 | 0.0534 |  |  | 0.0305 | 0.044 |
| T23A | 0.115 |  |  | 0.0731 |  | 0.111 |  | 0.0861 | 0.0987 |  | 0.105 | 0.106 | 0.0929 | 0.0845 | 0.0973 | 0.0864 | 0.101 | 0.101 |  |
| T23E | 0.0927 |  |  | 0.0874 | 0.125 | 0.0904 | 0.122 | 0.0625 | 0.0966 | 0.0715 | 0.107 | 0.0881 | 0.101 | 0.0976 | 0.115 | 0.103 | 0.0875 | 0.117 |  |
| T23K | 0.111 | 0.116 |  |  | 0.1 | 0.0845 | 0.0767 | 0.0677 |  | 0.0819 | 0.085 | 0.115 | 0.0912 | 0.072 | 0.078 |  | 0.081 |  | 0.137 |
| S26E | 0.0843 | 0.121 | 0.123 | 0.0806 |  | 0.0889 | 0.0811 |  | 0.0872 | 0.0816 | 0.0971 | 0.0814 | 0.0888 | 0.103 |  |  |  |  | 0.0934 |
| S26Q | 0.102 |  | 0.0949 | 0.0666 | 0.0784 | 0.0615 | 0.0786 |  | 0.0899 |  | 0.0737 | 0.0758 | 0.0815 | 0.0653 |  | 0.0886 | 0.0798 | 0.0928 | 0.0855 |
| S26R | 0.0895 | 0.0717 | 0.12 | 0.0644 | 0.0578 | 0.0742 |  | 0.0628 | 0.0669 |  | 0.0914 | 0.0894 | 0.0739 | 0.0743 |  |  |  | 0.112 | 0.08 |
| D27G | 0.127 |  |  | 0.131 |  |  | 0.0903 |  | 0.119 |  | 0.0984 | 0.0821 | 0.0963 | 0.0906 |  |  |  |  | 0.126 |
| D27S | 0.106 |  |  | 0.0962 | 0.105 |  | 0.0925 | 0.0972 | 0.0971 | 0.0983 | 0.097 |  | 0.101 | 0.113 | 0.0902 | 0.0779 | 0.112 | 0.0705 |  |
| G28Q | 0.101 |  | 0.093 |  | 0.0892 | 0.0646 | 0.0787 | 0.0836 |  |  | 0.0988 | 0.0954 |  | 0.0704 |  | 0.101 |  | 0.0939 | 0.0995 |
